Measurements from a collection of fitness landscapes (doi:10.1016/j.celrep.2020.107928).
The full ranking holds about 81,000 sequences; the median of “one-hybrid fitness for binding NBS DNA” is about -0.1, and the highest 2% start at about 0.36. This is one part of the list.

B1: Caulobacter ParB omega fusion; a variant is named by its letters at X, in order, B8GW30 (parent)
chain: MESVVVGEPGMSEGRRGLGRGLSALLGEVDAAPAQAPGEQLGGSREAPIEILQRNPDQPRRTFREEDLEDLSNSIREKGVLQPILVRPSPDTAGEYQIVAGERAWRAAQRAGLKTVPIMVRELDDLAVLEIGIIENVQRADLNVLEEALSYKVLMEKFERTQENIAQTIGKSXSHVANXMRLLXLPDEVQSYLVSGELTAXHARAIAAAADPVALAKQIIEGGLSVRETEALARKAPNLSAGKSKGGRPPRVKDTDTQALESDLSSVLGLDVSIDHRGSTGTLTITYATLEQLDDLCNRLTRGI

Variants of: B1
Test: one-hybrid fitness for binding NBS DNA (the Noc-binding site; scaled: cognate 1, non-cognate 0); higher = stronger binding
Details: with NBS DNA site
Summary of the method: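 Fitness is the rescaled log change in variant-to-wild-type read ratio, measured by Illumina sequencing of plasmids before and after bacterial one-hybrid selection. The scale puts cognate at 1 and non-cognate at 0. Selection of Caulobacter ParB libraries, four specificity codons randomised, took place in E. coli USO with a HIS3 reporter, site 19 bp from the promoter, over 48 hours at 37°C on M9-minus-histidine with 0.1 mM IPTG and 5 mM 3-AT.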

Variant	one-hybrid fitness for binding NBS DNA
HPAR	≤ 0.2
PMAT	≤ 0.2
NLCN	≤ 0.2
SESV	≤ 0.2
QMLQ	≤ 0.2
DTKV	≤ 0.2
HEYS	≤ 0.2
RGRG	≤ 0.2
ALVF	≤ 0.2
TLMS	≤ 0.2
LPHS	≤ 0.2
LHWK	≤ 0.2
RGVK	≤ 0.2
VPHA	≤ 0.2
SVMG	≤ 0.2
PQNK	≤ 0.2
AQHK	≤ 0.2
TKYG	≤ 0.2
RYMY	≤ 0.2
LGCV	≤ 0.2
YTDA	≤ 0.2
SWPV	≤ 0.2
HPNS	≤ 0.2
NKQF	≤ 0.2
SARQ	≤ 0.2

Variant	one-hybrid fitness for binding NBS DNA
LCQY	≤ 0.2
ADTM	≤ 0.2
LAEV	≤ 0.2
DSDE	≤ 0.2
YMLA	≤ 0.2
VLYD	≤ 0.2
HHSG	≤ 0.2
SHPC	≤ 0.2
LSGV	≤ 0.2
QSGN	≤ 0.2
SCDT	≤ 0.2
ATAH	≤ 0.2
ITLY	≤ 0.2
SWQS	≤ 0.2
ECGR	≤ 0.2
QLGQ	≤ 0.2
PDLG	≤ 0.2
NCRS	≤ 0.2
FMHS	≤ 0.2
SYSL	≤ 0.2
WLSS	≤ 0.2
HRRK	≤ 0.2
VIKR	≤ 0.2
GTLY	≤ 0.2
ARPA	≤ 0.2

Variant	one-hybrid fitness for binding NBS DNA
GYRI	≤ 0.2
GNSC	≤ 0.2
PRFC	≤ 0.2
GKEG	≤ 0.2
DFMR	≤ 0.2
AFNK	≤ 0.2
VMGS	≤ 0.2
EICR	≤ 0.2
PGRD	≤ 0.2
MQTR	≤ 0.2
IPAK	≤ 0.2
PFYA	≤ 0.2
TDRT	≤ 0.2
NIYW	≤ 0.2
IKYR	≤ 0.2
TTYW	≤ 0.2
PMRF	≤ 0.2
TFYC	≤ 0.2
RYNC	≤ 0.2
RNLG	≤ 0.2
ARSW	≤ 0.2
GVLD	≤ 0.2
PDGC	≤ 0.2
KGIR	≤ 0.2
PHSC	≤ 0.2

Variant	one-hybrid fitness for binding NBS DNA
WMLS	≤ 0.2
YPLS	≤ 0.2
LRNA	≤ 0.2
TQNF	≤ 0.2
PRHD	≤ 0.2
SWGH	≤ 0.2
EFNV	≤ 0.2
GSME	≤ 0.2
RIEE	≤ 0.2
PSHK	≤ 0.2
MKMD	≤ 0.2
VDSF	≤ 0.2
GMSL	≤ 0.2
CSSF	≤ 0.2
HYIC	≤ 0.2
VTLR	≤ 0.2
PQAI	≤ 0.2
MNVE	≤ 0.2
MQND	≤ 0.2
RYNL	≤ 0.2
AGQT	≤ 0.2
PHSR	≤ 0.2
VSST	≤ 0.2
